# Laboratory results: article PMC6212790
# This is one part of the list. At the low end of the ranking the order means little.
# Target: T1, GST-Rok-C97-191 (UniProt O34857)
# T1 sequence: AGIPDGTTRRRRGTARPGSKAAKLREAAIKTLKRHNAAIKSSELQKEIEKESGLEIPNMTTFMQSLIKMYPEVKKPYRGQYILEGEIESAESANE
# Test: protein binding microarray;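 also: rank score from −0.5 (least bound) to 0.5 (best bound)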
# Settings: Rok is a gene silencer of Bacillus subtilis; high values mean tight binding; most listed sequences are background and not binding sites; double strand, one strand shown
row,Sequence,binding signal [E-score]
1,GCCAACTA,0.0359
2,AAAATCCA,0.235
3,ATACGCCC,-0.139
4,ATATGTAC,0.309
5,CAGGTACA,0.0523
6,CTGTTCTC,-0.067
7,CCGTGCGA,-0.158
8,TAACTAGA,0.247
9,GGATTGGA,-0.106
10,CCCGGAGC,-0.106
11,AAACCTAA,0.129
12,AACATCGC,-0.123
13,CATTTCGG,0.00988
14,AGCCCTTG,-0.305
15,GCTCGCCC,-0.379
16,CGGCGACG,-0.208
17,CACCGGGG,-0.261
18,CTATTATA,0.329
19,CAGATTGG,0.0458
20,AGTCCCGG,-0.13
21,CACTAGTG,-0.0787
22,ACGGGTCG,-0.226
23,AACCTGGG,-0.221
24,GTATTCGA,0.15
25,AACCCGTG,-0.252

row,Sequence,binding signal [E-score]
1,TCATGTCA,0.0416
2,ACACGTTC,0.0185
3,GCTTTTAA,-0.0273
4,AATGTCGC,0.0115
5,GCACACCC,-0.244
6,ATCATGCG,-0.315
7,GAGTTTTA,0.182
8,GACAGGAA,-0.188
9,AAGTAACA,0.177
10,CAGGACAC,-0.247
11,CAGCTTAA,-0.0291
12,AATGTAAA,0.329
13,ACAGCTGG,-0.00567
14,CCTGCCTA,-0.083
15,CGACTGGC,-0.264
16,CACGCGCG,-0.176
17,ATTGTTTC,0.13
18,CCCTACAA,-0.0562
19,GGGCAACA,-0.277
20,CGGTCGTC,-0.124
21,CGTATAAG,0.061
22,AATGGGCA,-0.108
23,ACGCGCAG,-0.205
24,CATTTAAC,0.0527
25,CCCCCATC,-0.251

row,Sequence,binding signal [E-score]
1,ATCAGTCG,-0.0256
2,GCTAGGTA,0.145
3,CTCGTCGC,-0.108
4,CGGTGAAA,-0.0196
5,CGGCTTAA,-0.114
6,ACCGGCGG,-0.145
7,GCACTTCA,-0.266
8,CATACGAC,0.00215
9,CTTGTTGA,-0.202
10,AATCTCCC,-0.0734
11,CGCGTCTC,-0.196
12,CTGTGAAC,-0.00443
13,CTTTCGGA,-0.0395
14,CCCTTAAA,-0.0685
15,CAACGTTC,-0.0525
16,CACCTTCA,-0.15
17,CGCCCGGA,-0.118
18,CACGATAC,-0.0773
19,AAAGCTGG,0.124
20,ACGCCTCT,-0.238
21,ATTGACGA,-0.000157
22,CATAGGAG,0.02
23,CCTTGTCC,-0.199
24,GACATCAC,-0.254
25,GGAGAACC,0.0463

row,Sequence,binding signal [E-score]
1,ACGAAGCA,-0.0561
2,AACTCCAA,-0.228
3,TATTAAGA,0.145
4,CCACGGAG,-0.246
5,AAAATTTC,0.121
6,ATACAAGA,0.0874
7,AAGTGTGA,0.162
8,AACGGCAT,-0.151
9,CGCAGCGC,0.0339
10,CTGACGCC,-0.335
11,CATCGGTC,-0.105
12,ACGGTACC,0.0253
13,ACTGGACC,-0.229
14,CTCCTGTA,-0.0704
15,ATGATCCA,0.0416
16,GGAAATAA,0.161
17,GGTTGGCA,-0.214
18,AATAATGC,0.295
19,AACGAACC,0.0441
20,ACCTGAGT,-0.185
21,CGCAAGCG,-0.193
22,GTGTTGTA,0.158
23,CACACTTC,0.141
24,CCGCAGGA,-0.137
25,CATACTGC,0.0241

row,Sequence,binding signal [E-score]
1,AACGGTTC,0.121
2,GATTCATA,0.23
3,ATTCCTGG,-0.212
4,AGCTCATC,0.11
5,GCTCTGTA,-0.0553
6,CTACTTGA,0.0483
7,GGGACTAA,0.0775
8,TACAGACA,0.0961
9,ACCTGTGG,-0.112
10,AGCCTTGA,-0.13
11,ACAGAATG,-0.0496
12,ATGGGCGC,-0.157
13,CCATAGTC,0.0206
14,ATCAATAC,0.136
15,CGCAATCC,-0.208
16,AGAACCTA,0.212
17,CTTTTCGC,0.226
18,CCCAAGCG,-0.224
19,GTCCGCGA,0.0293
20,TGAGCTAA,0.0565
21,ATTCGCTG,0.0111
22,CCCCTTAC,-0.322
23,TGCAGCCA,-0.132
24,ATATGTAG,0.386
25,CCGTCCTC,-0.343

row,Sequence,binding signal [E-score]
1,AAGTGAGT,0.0981
2,CGCCCAAC,-0.0627
3,GCATATAC,0.18
4,CAGAGAAC,-0.118
5,CTGTATCC,-0.0696
6,GGGGAACC,-0.322
7,GTGGGTCA,-0.167
8,AACGAAAG,0.162
9,AAGTTAAT,0.195
10,GGTAGTCA,0.192
11,GCCTCGCA,-0.272
12,AACAAAGT,0.0493
13,AGAGCCAT,-0.255
14,TGGATCCA,-0.149
15,CGGTGGAA,-0.0743
16,GACTTATC,0.0621
17,AGGCGAAC,-0.0431
18,AAGCGTAT,-0.00415
19,GATTATAA,0.251
20,CACCCCGG,-0.292
21,CCAAGGGA,-0.167
22,CCGTCCCG,-0.191
23,AATTGTCC,0.0642
24,ACGGTGAT,-0.0268
25,GGGCAGCA,-0.117

row,Sequence,binding signal [E-score]
1,TCCTAAGA,-0.0657
2,AGGTCAAG,-0.0455
3,GAAGATGA,-0.0218
4,GCCCGCCA,-0.227
5,GTCGGGGA,-0.195
6,AGCGTAAG,-0.0539
7,CAAAGAGC,-0.382
8,ATGCCATG,-0.0764
9,AGAAACCA,0.183
10,CACCCCTC,-0.325
11,CGAACGGA,-0.0748
12,CGGATTTA,0.113
13,CGCTCACC,0.0129
14,AGTTTCAC,0.15
15,CATGACCG,-0.124
16,CACCCCAG,-0.267
17,TATTAAAA,0.189
18,GTCTAACA,-0.0252
19,GAGGGCTA,-0.148
20,ACAACGTA,0.164
21,CGTTGCAC,-0.135
22,AGACTCAA,-0.0392
